Some of the results follow. The full chains were built here from the parent and the listed change. Values near 0.05 are background.
B1: TEV protease; numbered along this chain (parent)
chain: MGESLFKGPRDYNPISSSICHLTNESDGHTTSLYGIGFGPFIITNKHLFRRNNGTLVVQSLHGVFKVKDTTTLQQHLVDGRDMIIIRMPKDFPPFPQKLKFREPQREERICLVTTNFQTKSMSSMVSDTSCTFPSGDGIFWKHWIQTKDGQCGSPLVSTRDGFIVGIHSASNFTNTNNYFTSVPKNFMELLTNQEAQQWVSGWRLNADSVLWGGHKVFMVKPEEPFQPVKEATQL

Variants of: B1
Assay: raw area under fraction-flipped curve 0-4 h after induction (AUC4h, not background-subtracted), DNA-recorder readout of cleavage of the substrate (dimensionless); higher = more cleavage of the substrate by the protease variant
Settings: temperature: 34 °C; time window: 0-4 h after rhamnose induction
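Further: Bxb1 expression induced with 0.2% (w/v) L-rhamnose at OD600 near 0.5, cultures sampled hourly, flipped fraction per protease–substrate barcode pair counted by paired-end Illumina sequencing.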

| Variant | area with substrate ENLYFCS | area with substrate ENLYFES | area with substrate ENLYFGS | area with substrate ENLYFHS | area with substrate ENLYFIS | area with substrate ENLYFKS | area with substrate ENLYFLS | area with substrate ENLYFMS | area with substrate ENLYFPS | area with substrate ENLYFRS | area with substrate ENLYFDS | area with substrate ENLYFFS | area with substrate ENLYFNS | area with substrate ENLYFSS | area with substrate ENLYFTS | area with substrate ENLYFVS | area with substrate ENLYFYS | area with substrate ENLYFWS |
| --- | --- | --- | --- | --- | --- | --- | --- | --- | --- | --- | --- | --- | --- | --- | --- | --- | --- | --- |
| MGESLFKGPRDYNPISSSICHLTNESDGHTTSLYGIGFGPFIITNKHLFRRNNGTLVVQSLHGVFKVKDTTTLQQHLVDGRDMIIIRMPKDFPPFPQKLKFREPQREERICLVTTNFQTKSMSSMVSDTSCTFPSGDGIFWKHWIQTKDGQCGSPLVSTRSGFIVGIHSASNFTNTNNYFTSVPKNFMELLTNQEAQQWVSGWRLNADSVLWGGHKVFMVKPEEPFQPVKEATQL [D161S] | 0.0553 | 0.0533 | 0.0556 | 0.0719 | 0.0464 | 0.0671 | 0.0702 | 0.0577 | 0.053 | 0.0501 |  |  |  |  |  |  |  |  |
| MGESLFKGPRDYNPISSSICHLTNESDGHTTSLYGIGFGPFIITNKHLFRRNNGTLVVQSLHGVFKVKDTTTLQQHLVDGRDMIIIRMPKDFPPFPQKLKFREPQREERICLVTTNFQTKSMSAMVSDTSCTFPSGDGIFWKHWIQTKDGQCGSPLVSTRDGFIVGIHSASNFTNTNNYFTSVPKNFMELLTNQEAQQWVSGWRLNADSVLWGGHKVFMVKPEEPFQPVKEATQL [S124A] | 0.0571 | 0.0637 | 0.0422 | 0.0582 | 0.0568 | 0.0756 | 0.0587 |  |  |  | 0.0676 | 0.0471 | 0.072 | 0.0707 | 0.0476 |  |  |  |
| MGESLFKGPRDYNPISSSICHLTNESDGHTTSLYGIGFGPFIITNKHLFRRNNGTLVVQSLHGVFKVKDTTTLQQHLVDGRDMIIIRMPKDFPPFPQKLKFREPQREERICLVTTNFQTKSMSFMVSDTSCTFPSGDGIFWKHWIQTKDGQCGSPLVSTRDGFIVGIHSASNFTNTNNYFTSVPKNFMELLTNQEAQQWVSGWRLNADSVLWGGHKVFMVKPEEPFQPVKEATQL [S124F] | 0.0929 |  |  | 0.0591 | 0.0588 |  |  | 0.0666 | 0.0609 |  |  | 0.0595 |  | 0.0673 |  | 0.0487 | 0.0535 |  |
| MGESLFKGPRDYNPISSSICHLTNESDGHTTSLYGIGFGPFIITNKHLFRRNNGTLVVQSLHGVFKVKDTTTLQQHLVDGRDMIIIRMPKDFPPFPQKLKFREPQREERICLVTTNFQTKSMSSMVSDTSCTFPSYDGIFWKHWIQTKDGQCGSPLVSTRDGFIVGIHSASNFTNTNNYFTSVPKNFMELLTNQEAQQWVSGWRLNADSVLWGGHKVFMVKPEEPFQPVKEATQL [G136Y] | 0.0572 | 0.0479 |  |  | 0.0623 | 0.0738 |  | 0.0595 | 0.0514 | 0.0571 |  | 0.0726 | 0.059 |  | 0.0609 |  | 0.0533 | 0.0719 |
| MGESLFKGPRDYNPISSSICHLTNESDGHTTSLYGIGFGPFIITNKHLFRRNNGTLVVQSLHGVFKVKDTTTLQQHLVDGRDMIIIRMPKDFPPFPQKLKFREPYREERICLVTTNFQTKSMSSMVSDTSCTFPSGDGIFWKHWIQTKDGQCGSPLVSTRDGFIVGIHSASNFTNTNNYFTSVPKNFMELLTNQEAQQWVSGWRLNADSVLWGGHKVFMVKPEEPFQPVKEATQL [Q105Y] | 0.0442 | 0.0548 | 0.0636 | 0.0595 | 0.0572 |  |  | 0.0717 | 0.047 | 0.0313 |  | 0.0833 | 0.0747 | 0.0612 |  |  | 0.0602 | 0.054 |
| MGESLFKGPRDYNPISSSICHLTNESDGHTTSLYGIGFGPFIITNKHLFRRNNGTLVVQSLHGVFKVKDTTTLQQHLVDGRDMIIIRMPKDFPPFPQKLKKREPQREERICLVTTNFQTKSMSSMVSDTSCTFPSGDGIFWKHWIQTKDGQCGSPLVSTRDGFIVGIHSASNFTNTNNYFTSVPKNFMELLTNQEAQQWVSGWRLNADSVLWGGHKVFMVKPEEPFQPVKEATQL [F101K] | 0.0515 |  | 0.0166 |  | 0.059 |  |  |  | 0.0459 | 0.0558 |  | 0.0738 |  |  | 0.043 |  | 0.0532 |  |
| MGESLFKGPRDYNPISSSICHLTNESDGHTTSLYGIGFGPFIITNKHLFRRNNGTLVVQSLHGVFKVKDTTTLQQHLVDGRDMIIIRMPKDFPPFPQKLKFREPQREERICLVTTNFQTKSMSSMVSDTSCTFPSGDGIFWDHWIQTKDGQCGSPLVSTRDGFIVGIHSASNFTNTNNYFTSVPKNFMELLTNQEAQQWVSGWRLNADSVLWGGHKVFMVKPEEPFQPVKEATQL [K142D] | 0.0641 | 0.0641 |  | 0.0596 | 0.0599 |  |  |  | 0.0658 |  | 0.0589 |  |  | 0.0665 | 0.0541 |  | 0.0579 | 0.0423 |
| MGESLFKGPRDYNPISSSICHLTNESDGHTTSLYGIGFGPFIITNKHLFRRNNGTLVVQSLHGVFKVKDTTTLQQHLVDGRDMIIIRMPKDFPPFPQKLKFREPQREERICLVTTNFQTKSMSSMVSDTSCTFPSGDGIFWRHWIQTKDGQCGSPLVSTRDGFIVGIHSASNFTNTNNYFTSVPKNFMELLTNQEAQQWVSGWRLNADSVLWGGHKVFMVKPEEPFQPVKEATQL [K142R] | 0.0632 | 0.0557 |  | 0.0613 | 0.0604 | 0.0596 |  | 0.0673 | 0.0737 | 0.0448 | 0.0547 | 0.0456 |  |  | 0.0581 | 0.0662 | 0.0517 | 0.0674 |
| MGESLFKGPRDYNPISSSICHLTNESDGHTTSLYGIGFGPFIITNKHLFRRNNGTLVVQSLHGVFKVKDTTTLQQHLVDGRDMIIIRMPKDFPPFPQKLKFREPQREERICLVTTNFQTKSMSSMVSDTSCTFPSGDGIFWKHWIQTKDGQCPSPLVSTRDGFIVGIHSASNFTNTNNYFTSVPKNFMELLTNQEAQQWVSGWRLNADSVLWGGHKVFMVKPEEPFQPVKEATQL [G153P] | 0.049 | 0.046 | 0.0405 |  |  | 0.0601 | 0.0517 |  | 0.0455 | 0.0526 | 0.0561 | 0.051 |  |  | 0.0531 | 0.0386 |  |  |
| MGESLFKGPRDYNPISSSICHLTNESDGHTTSLYGIGFGPFIITNKHLFRRNNGTLVVQSLHGVFKVKDTTTLQQHLVDGRDMIIIRMPKDFPPFPQKLKFREPQREERICLVTTNFQTKSMSSMVSDTSCTFPSGDGIFWKHWIQTKDGQCGSVLVSTRDGFIVGIHSASNFTNTNNYFTSVPKNFMELLTNQEAQQWVSGWRLNADSVLWGGHKVFMVKPEEPFQPVKEATQL [P155V] | 0.0347 | 0.0513 |  | 0.064 | 0.059 | 0.0767 |  | 0.0547 | 0.0577 | 0.0571 | 0.0481 | 0.0722 | 0.0722 |  | 0.0549 |  |  |  |
